Source: the supplement of paper PMC4967469

Experiments:
Assay in all cases: Viability of human cancer cell lines after 72 h of drug (GDSC screen)
BX-912 = compound: O=C(Nc1cccc(Nc2ncc(Br)c(NCCc3cnc[nH]3)n2)c1)N1CCCC1 [BX-912]; settings: top dose 10.24 µM; top dose inferred
Procedure: (§1)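 Human cancer cell lines in 384-well plates, medium with 10% serum, drug for 72 h over a 256-fold dose range (nine 2-fold or five 4-fold steps up to the top dose). Adherent lines were fixed and stained with the nucleic acid dye Syto60, suspension lines read with resazurin; signal relative to control wells, capped at 0 and 100%. One two-parameter sigmoid per drug and line, fitted in a mixed model over all curves with the slope shared within a line.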

Tamoxifen = compound: CC/C(=C(\c1ccccc1)c1ccc(OCCN(C)C)cc1)c1ccccc1 [Tamoxifen]; settings: top dose 5 µM
Procedure: as §1

LAQ824 = compound: O=C(/C=C/c1ccc(CN(CCO)CCc2c[nH]c3ccccc23)cc1)NO [LAQ824]; settings: top dose 1.024 µM; top dose inferred
Procedure: as §1

Masitinib = compound: Cc1ccc(NC(=O)c2ccc(CN3CCN(C)CC3)cc2)cc1Nc1nc(-c2cccnc2)cs1 [Masitinib]; settings: top dose 20 µM
Procedure: as §1

HG-5-88-01 = compound: COc1cc(N2CCC(C(N)=O)CC2)ccc1Nc1nc(N)c(Cl)c(Nc2ccccc2S(=O)(=O)C(C)C)n1 [HG-5-88-01]; settings: top dose 10 µM; top dose inferred
Procedure: as §1

VNLG/124 = compound: CCCC(=O)OCc1ccc(OC(=O)/C=C(C)/C=C/C=C(C)/C=C/C2=C(C)CCCC2(C)C)cc1 [VNLG/124]; settings: top dose 5.12 µM; top dose inferred
Procedure: as §1

Elesclomol = compound: CN(NC(=O)CC(=O)NN(C)C(=S)c1ccccc1)C(=S)c1ccccc1 [Elesclomol]; settings: top dose 0.2 µM; top dose inferred
Procedure: as §1

NSC-87877 = compound: O=S(=O)(O)c1ccc2cc(N=Nc3cc(S(=O)(=O)O)c4cccnc4c3O)ccc2c1 [NSC-87877]; settings: top dose 16 µM; top dose inferred
Procedure: as §1

OSI-930 = compound: O=C(Nc1ccc(OC(F)(F)F)cc1)c1sccc1NCc1ccnc2ccccc12 [OSI-930]; settings: top dose 10.24 µM
Procedure: as §1

Bleomycin = compound: Cc1c(N)nc([C@H](CC(N)=O)NC[C@H](N)C(N)=O)nc1C(=O)N[C@H](C(=O)N[C@H](C)[C@@H](O)[C@H](C)C(=O)N[C@H](C(=O)NCCc1nc(-c2nc(C(=O)NCCC[S+](C)C)cs2)cs1)[C@@H](C)O)[C@@H](OC1OC(CO)C(O)C(O)C1OC1OC(CO)C(O)C(OC(N)=O)C1O)c1cnc[nH]1 [Bleomycin]
Procedure: as §1

[1] = top dose 50 µM, screen: GDSC drug entry 1378, top dose inferred
[2] = top dose 64 µM, screen: GDSC drug entry 190

Cell Line | AUC (BX-912) | IC50 (BX-912) [µM] | AUC (Tamoxifen) | IC50 (Tamoxifen) [µM] | AUC (LAQ824) | IC50 (LAQ824) [µM] | AUC (Masitinib) | IC50 (Masitinib) [µM] | AUC (HG-5-88-01) | IC50 (HG-5-88-01) [µM] | AUC (VNLG/124) | IC50 (VNLG/124) [µM] | AUC (Elesclomol) | IC50 (Elesclomol) [µM] | AUC (NSC-87877) | IC50 (NSC-87877) [µM] | AUC (OSI-930) | IC50 (OSI-930) [µM] | AUC (Bleomycin; [1]) | IC50 (Bleomycin; [1]) [µM] | AUC (Bleomycin; [2]) | IC50 (Bleomycin; [2]) [µM]
A253 (head and neck, adherent) | 0.941 | > 10.2 | 0.988 | > 5 | 0.686 | 0.208 | 0.902 | > 20 | 0.97 | > 10 | 0.985 | > 5.12 | 0.581 | 0.0207 | 0.973 | > 16 | 0.987 | > 10.2 | 0.158 | 0.288 | 0.443 | 2.8
NCI-H28 (mesothelioma, adherent) | 0.973 | > 10.2 | 0.978 | > 5 | 0.483 | 0.0566 | 0.96 | > 20 | 0.891 | > 10 | 0.981 | > 5.12 | 0.54 | 0.0166 | 0.981 | > 16 | 0.973 | > 10.2 | 0.571 | 5.18 | 0.374 | 1.61
HCC1419 (breast, adherent) | 0.98 | > 10.2 | 0.98 | > 5 | 0.422 | 0.0358 | 0.838 | > 20 | 0.98 | > 10 | 0.977 | > 5.12 | 0.568 | 0.0208 | 0.982 | > 16 | 0.943 | > 10.2 | 0.974 | > 50 | 0.902 | > 64
Hs683 (glioma, adherent) | 0.9 | > 10.2 | 0.987 | > 5 | 0.571 | 0.1 | 0.914 | > 20 | 0.987 | > 10 | 0.974 | > 5.12 | 0.709 | 0.0489 | 0.986 | > 16 | 0.976 | > 10.2 | 0.339 | 1.11 | 0.464 | 3.18
SK-MM-2 (myeloma, suspension) | 0.915 | > 10.2 | 0.986 | > 5 | 0.155 | 0.00519 | 0.832 | 13.5 | 0.778 | 4.23 | 0.863 | 4.74 | 0.965 | > 0.2 | 0.979 | > 16 | 0.966 | > 10.2 | 0.979 | > 50 | 0.771 | 25.7
CL-11 (large intestine, adherent) | 0.98 | > 10.2 | 0.986 | > 5 | 0.817 | 0.67 | 0.983 | > 20 | 0.882 | > 10 | 0.987 | > 5.12 | 0.942 | > 0.2 | 0.983 | > 16 | 0.984 | > 10.2 | 0.813 | 31.3 | 0.959 | > 64
MFE-280 (endometrium, adherent) | 0.687 | 2.48 | 0.829 | 4.33 | 0.581 | 0.113 | 0.935 | > 20 | 0.936 | > 10 | 0.982 | > 5.12 | 0.8 | 0.129 | 0.965 | > 16 | 0.945 | > 10.2 | 0.947 | > 50 | 0.912 | > 64
SK-MEL-1 (melanoma, suspension) | 0.975 | > 10.2 | 0.991 | > 5 | 0.824 | 0.504 | 0.931 | > 20 | 0.993 | > 10 | 0.992 | > 5.12 | 0.992 | > 0.2 | 0.983 | > 16 | 0.991 | > 10.2 | 0.965 | > 50 | 0.971 | > 64
TE-12 (oesophagus, suspension) | 0.814 | 7.17 | 0.974 | > 5 | 0.486 | 0.0579 | 0.908 | > 20 | 0.87 | > 10 | 0.978 | > 5.12 | 0.513 | 0.0136 | 0.981 | > 16 | 0.927 | > 10.2 | 0.65 | 8.95 | 0.284 | 0.844
NCI-H1781 (lung adenocarcinoma, adherent) | 0.989 | > 10.2 | 0.988 | > 5 | 0.832 | 0.657 | 0.983 | > 20 | 0.971 | > 10 | 0.989 | > 5.12 | 0.635 | 0.0295 | 0.989 | > 16 | 0.988 | > 10.2 | 0.289 | 0.794 | 0.376 | 1.83
SKN (uterus, adherent) | 0.838 | 9.08 | 0.942 | > 5 | 0.609 | 0.136 | 0.819 | 14.5 | 0.965 | > 10 | 0.957 | > 5.12 | 0.361 | 0.00475 | 0.964 | > 16 | 0.944 | > 10.2 | 0.568 | 4.98 | 0.826 | 49.9
CHSA8926 (chondrosarcoma, adherent) | 0.829 | > 10.2 | 0.969 | > 5 | 0.932 | > 1.02 | 0.972 | > 20 | 0.799 | 7.34 | 0.98 | > 5.12 | 0.454 | 0.00891 | 0.977 | > 16 | 0.972 | > 10.2 | 0.615 | 7.4 | 0.845 | > 64

The IC50 comes from the fitted curve, where viability falls to half of the control; a fit beyond the top or the lowest dose is shown as a bound at that dose. AUC sums up the same curve from the lowest dose to the 256-fold higher top dose; values near 1 show little effect. For part of these data: The top dose, if marked as inferred, was calculated from the reported fits. For part of these data: An entry number marks a drug with two screens in the source, which often give different values.
